# The campaign covered roughly 310,000 compounds. About 2,200 (0.71%) showed an effect of 50% or more. Effects have a minus sign here. Some of the results follow.
# Molecular target: human ether-à-go-go-related gene (hERG) potassium channel (human, UniProt Q12809)
# Experiment: primary screen, population patch clamp on CHO cells stably expressing hERG
# Sequence of human ether-à-go-go-related gene (hERG) potassium channel (Q12809 whole entry, looked up): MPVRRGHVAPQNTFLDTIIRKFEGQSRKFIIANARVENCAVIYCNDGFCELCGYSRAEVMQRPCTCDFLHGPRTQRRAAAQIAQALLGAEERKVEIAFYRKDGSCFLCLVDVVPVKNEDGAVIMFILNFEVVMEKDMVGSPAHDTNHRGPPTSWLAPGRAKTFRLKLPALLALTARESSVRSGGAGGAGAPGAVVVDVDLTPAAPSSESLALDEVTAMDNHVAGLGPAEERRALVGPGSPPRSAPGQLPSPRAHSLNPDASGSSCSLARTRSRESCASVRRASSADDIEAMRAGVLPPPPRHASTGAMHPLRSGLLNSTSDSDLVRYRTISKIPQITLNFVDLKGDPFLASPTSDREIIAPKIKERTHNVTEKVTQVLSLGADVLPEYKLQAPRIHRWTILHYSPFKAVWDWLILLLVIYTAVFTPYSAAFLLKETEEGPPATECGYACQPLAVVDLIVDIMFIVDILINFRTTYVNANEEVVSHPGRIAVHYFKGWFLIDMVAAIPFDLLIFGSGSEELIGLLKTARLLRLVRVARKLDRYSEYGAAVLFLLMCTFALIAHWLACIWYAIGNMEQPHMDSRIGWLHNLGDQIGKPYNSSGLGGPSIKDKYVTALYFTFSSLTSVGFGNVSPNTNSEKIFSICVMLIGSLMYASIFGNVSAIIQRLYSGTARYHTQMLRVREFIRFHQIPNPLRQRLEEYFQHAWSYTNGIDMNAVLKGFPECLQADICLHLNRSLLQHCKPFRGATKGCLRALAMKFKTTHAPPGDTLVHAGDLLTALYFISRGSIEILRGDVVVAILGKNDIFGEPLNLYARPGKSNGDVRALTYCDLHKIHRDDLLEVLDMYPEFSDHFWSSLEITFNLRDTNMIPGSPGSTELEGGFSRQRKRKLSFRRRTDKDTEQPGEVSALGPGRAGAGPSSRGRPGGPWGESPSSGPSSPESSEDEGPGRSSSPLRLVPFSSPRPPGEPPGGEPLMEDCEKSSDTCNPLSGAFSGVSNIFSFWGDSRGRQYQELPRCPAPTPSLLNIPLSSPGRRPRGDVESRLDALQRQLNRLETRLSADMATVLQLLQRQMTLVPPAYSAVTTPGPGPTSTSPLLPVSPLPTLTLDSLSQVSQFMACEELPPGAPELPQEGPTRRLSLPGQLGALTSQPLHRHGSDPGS
row,Structure (SMILES),"hERG current change (%, negative = inhibition) at 1uM"
1,CSc1ncc(Cl)c(C(=O)NCc2ccc3c(c2)OCO3)n1,5.83%
2,Cc1cccc(NC(=O)CN(C)S(=O)(=O)c2cnc[nH]2)c1,12.9%
3,CCOCCCNC(=O)C1CCN(S(=O)(=O)c2c(C)noc2/C=C\c2ccc(OC)cc2)CC1,8.17%
4,CC(C)Cc1nnc(NS(C)(=O)=O)s1,20%
5,O=S(=O)(NC1CC1)c1ccc(S(=O)(=O)N2CCCC(c3nc(-c4cccnc4)no3)C2)cc1 (centres unmarked),-6.69%
6,CC1(C)Cc2c(sc3nc(C4CC4)n(N)c(=O)c23)CO1,13.6%
7,CCCn1c(SCC(=O)N2CCCc3ccccc32)nnc1-c1ccccn1,2.64%
8,Cc1cc(C)cc(NC(=O)CCN2C(=O)c3ccccc3S2(=O)=O)c1,10.5%
9,Cn1c(C(=O)OC(C(=O)NC2CCCCC2)c2cccnc2)cc2sccc21 (centres unmarked),7.83%
10,CC(C)NC(=O)NC(=O)CSc1nnc(COc2ccccc2F)n1C(C)C1CC2CCC1C2 (centres unmarked),2.19%
11,Cn1c(=O)c2c(nc(NN=C3CCCCC3)n2C)n(C)c1=O,15.6%
12,CCCCNC(=O)C1CCN(S(=O)(=O)N2CCOCC2)CC1,9.05%
13,CSc1cccc(CN2CCCC(CNC(=O)c3ccc(F)cc3)C2)c1 (centres unmarked),-19.1%
14,CN(C)C(=C(C#N)C#N)N1CCN(c2ccc(Cl)cc2)CC1,-16%
15,CCCCn1c(=O)[nH]c(=O)c2c1nc(CN1C(=O)c3ccccc3S1(=O)=O)n2CCC,-7.61%
16,CCn1cnc2cc(NCc3cccc(OC)c3O)ccc21,8.76%
17,Cc1cc(Cl)c2oc(C(=O)N(C)C(C)c3ccccn3)c(C)c2c1 (centres unmarked),4.49%
18,c1ccc(Oc2nc(-c3cccnc3)nc3ccccc23)cc1,13.3%
19,COC(=O)c1ccc(NC(=O)CSc2nncc3ccc(OC)c(OC)c23)cc1,1.77%
20,COc1ccc(OC)c(NC(=O)c2ccc(NC(C)=O)cc2)c1,1.26%
21,CSc1cccc(CNC(=O)C2CCC(=O)N(Cc3cccc(C(F)(F)F)c3)C2)c1 (centres unmarked),12.3%
22,CC(=O)Nc1ccc(S(=O)(=O)C(C#N)c2nc3ccccc3nc2NCCN2CCOCC2)cc1 (centres unmarked),6.76%

row,Structure (SMILES),"hERG current change (%, negative = inhibition) at 1uM"
1,Cc1ccccc1NC(=O)CSCC(=O)Nc1ccccc1C,5.46%
2,O=C(c1cccnc1)N1CCN(C(=O)c2ccccc2F)CC1,-11.4%
3,COc1ccccc1OCCCn1c(C)c(C#N)c2ccccc21,15.1%
4,Cc1cc2c(cc1S(=O)(=O)N1CCOCC1)NC(=O)CO2,15%
5,CCCCCN(C(=O)NC(=O)Nc1nncs1)S(C)(=O)=O,14.6%
6,COC(=O)C1=C(c2cccc(Cl)c2)C[C@@H]2CC[C@H]1N2C(=O)N1CCCC1,9.41%
7,O=c1c2ccccc2[nH]c(=S)n1CCN1CCCCC1,6.61%
8,Cc1ccc(N2C(=O)C3C(C2=O)C(C(=O)c2ccc(Cl)cc2)N2CCCC32)cc1 (centres unmarked),14.3%
9,COc1cc(/C=N/NC(=O)c2ccc(CN(C)S(=O)(=O)c3ccc(C)cc3)cc2)ccc1O,12.6%
10,Clc1nc2sccn2c1/C=N/n1cnc2ccccc21,9.25%
11,COc1ccc(C(=O)NC(=S)Nc2ccc(S(N)(=O)=O)cc2)cc1,10.5%
12,Cc1cccc(C)c1N=C1SC(CC(=O)Nc2c(C)cccc2C)C(=O)N1CCc1ccccn1 (centres unmarked),11.5%
13,CCOC(=O)N1CCN(C(=S)NC2CCCC2)CC1,8.85%
14,CCCC(=O)Nc1nc(CC(=O)OCC)cs1,0.595%
15,N#CCSc1ncnc2c1cnn2CCO,18.2%
16,Cc1ccc(C(C(=O)NCC2CCCO2)N(C(=O)c2snc(C(N)=O)c2N)c2ccc(F)cc2)o1 (centres unmarked),12.7%
17,CCc1ccc(OCC(=O)OCC(=O)c2c(N)n(C)c(=O)n(C)c2=O)cc1,7.79%
18,O=C1c2ccccc2S(=O)(=O)c2cc(N3CCC4(CC3)OCCO4)ccc21,6.65%
19,COc1cc(NC(=O)c2cccs2)c(C(=O)OCC(=O)c2cc(C)n(-c3ccccc3)c2C)cc1OC,8.11%
20,Cc1ccc(S(=O)(=O)Nc2cc3c(cc2C#N)OCO3)cc1C(N)=O,11.4%
21,CC(=O)Nc1ccc(NC(=O)C(C)O/N=C/c2cccc([N+](=O)[O-])c2)cc1 (centres unmarked),-8.51%
22,Cc1onc(-c2c(F)cccc2Cl)c1-c1nnc(-c2cccc3ccccc23)o1,8.69%

# From paper PMC4336329 (PLoS ONE, 2015)
